Results: publication PMC4336329 (PLoS ONE, 2015)
About 2,200 (0.71%) of roughly 310,000 compounds showed an effect of 50% or more. The effect is printed as a negative number. The list shows a part of the results.

target: human ether-à-go-go-related gene (hERG) potassium channel (human, UniProt Q12809); experiment: primary screen, population patch clamp on CHO cells stably expressing hERG
Sequence (Q12809 whole entry, looked up): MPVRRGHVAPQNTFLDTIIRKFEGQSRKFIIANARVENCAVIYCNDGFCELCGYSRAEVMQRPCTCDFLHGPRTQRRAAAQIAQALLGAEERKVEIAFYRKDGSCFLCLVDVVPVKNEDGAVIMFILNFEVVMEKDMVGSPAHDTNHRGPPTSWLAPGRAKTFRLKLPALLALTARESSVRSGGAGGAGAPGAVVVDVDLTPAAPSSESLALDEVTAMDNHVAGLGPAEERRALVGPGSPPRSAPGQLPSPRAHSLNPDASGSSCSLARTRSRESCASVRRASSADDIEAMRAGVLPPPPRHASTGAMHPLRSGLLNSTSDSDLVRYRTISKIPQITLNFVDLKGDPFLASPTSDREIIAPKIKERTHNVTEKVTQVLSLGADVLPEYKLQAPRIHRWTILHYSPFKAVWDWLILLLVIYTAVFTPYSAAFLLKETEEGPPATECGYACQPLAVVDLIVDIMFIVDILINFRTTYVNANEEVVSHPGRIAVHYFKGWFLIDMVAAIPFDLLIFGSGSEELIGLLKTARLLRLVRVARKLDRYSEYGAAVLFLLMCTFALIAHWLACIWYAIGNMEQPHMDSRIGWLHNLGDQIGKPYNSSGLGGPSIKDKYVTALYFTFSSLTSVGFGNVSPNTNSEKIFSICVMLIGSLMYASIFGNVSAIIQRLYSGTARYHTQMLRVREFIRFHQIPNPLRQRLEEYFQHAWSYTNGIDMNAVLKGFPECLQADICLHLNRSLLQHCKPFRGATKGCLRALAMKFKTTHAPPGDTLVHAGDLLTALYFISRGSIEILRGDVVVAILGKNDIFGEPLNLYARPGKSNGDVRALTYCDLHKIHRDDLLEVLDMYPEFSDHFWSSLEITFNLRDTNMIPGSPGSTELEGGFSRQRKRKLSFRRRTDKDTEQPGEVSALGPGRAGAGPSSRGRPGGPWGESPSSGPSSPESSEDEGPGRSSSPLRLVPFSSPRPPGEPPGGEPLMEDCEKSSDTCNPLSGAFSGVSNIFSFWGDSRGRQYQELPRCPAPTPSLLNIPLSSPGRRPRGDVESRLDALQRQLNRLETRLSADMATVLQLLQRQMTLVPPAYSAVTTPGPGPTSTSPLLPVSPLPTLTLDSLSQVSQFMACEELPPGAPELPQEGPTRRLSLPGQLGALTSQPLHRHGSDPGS

Row | SMILES | hERG current change (%, negative = inhibition) at 1uM [%]
1 | CCOC(=O)c1ccccc1-n1nnnc1C | 13.4
2 | NNC(=O)c1ccc(NS(=O)(=O)c2ccc(Br)cc2)cc1 | 5.7
3 | COc1ccc(OCC(=O)N2CCOCC2)cc1 | 2.53
4 | Cc1ccc(C(=O)NNC(=O)/C=C\C(=O)O)cc1 | 11.2
5 | Nn1cnnc1N/N=C/c1ccc(F)cc1 | 9.92
6 | O=C(c1ccsc1)N1CCCC(N2CCN(c3cccc(C(F)(F)F)c3)CC2)C1 (centres unmarked) | -11.4
7 | O=C(Cn1cnc2ccccc2c1=O)N1CCN(Cc2ccc3c(c2)OCO3)CC1 | 2.38
8 | CCOc1ccc(Nc2nc(N)c([N+](=O)[O-])c(NCc3ccccc3)n2)cc1 | 16
9 | CCC(NC(=O)Nc1cc(C)on1)(C(F)(F)F)C(F)(F)F | 9.27
10 | CCn1c(COc2ccccc2)nnc1SCC(=O)C(C)(C)C | -7.57
11 | Cc1cccc(S(=O)(=O)Nc2ccc3c(c2)OCCO3)c1 | 16.1
12 | Cc1noc(C)c1Cc1c(Cl)cccc1Cl | 14
13 | COCCOC1CCN(C(=O)c2cc(COc3ccc(-n4cncn4)cc3)on2)CC1 | -2.14
14 | CCC(C)[C@H](NC(=O)NCCCOC(C)C)C(=O)OC (some centres unmarked) | 1.14
15 | O=C1C=C(c2cccs2)C[C@H](c2ccccc2)[C@H]1n1nnc([N+](=O)[O-])n1 | 4.04
16 | CC[C@@H](C)[C@H](CNC)NC[C@@H](Cc1cccc2ccccc12)NCCc1cccc(C(F)(F)F)c1 | 7.77
17 | Cc1ccccc1N(CC(=O)Nc1ccc(F)cc1)S(C)(=O)=O | 10.5
18 | Cc1ccc(CNC(=O)c2ccc3c(=O)n(CCCN4CCCC4=O)c(=S)[nH]c3c2)cc1 | 11.9
19 | CCOC(=O)CSc1nnc(-c2ccc(S(=O)(=O)N3CCC(C)CC3)cc2)o1 | -2.31
20 | CC(C)=CCCC(C)CN1CCC(n2nccc2NC(=O)C2CCCC2)CC1 (centres unmarked) | -50.3
21 | Cc1ccc(N2C(=O)N(CC(=O)N3CCCc4ccccc43)C(=O)C2C)cc1 (centres unmarked) | 7.42
22 | CC(=O)Nc1cc(C)nn1-c1nc(C)cc(C)n1 | 2.16
23 | O=S(=O)(NC1CCCCC1)c1ccc(Cl)s1 | -10.7

Row | SMILES | hERG current change (%, negative = inhibition) at 1uM [%]
24 | Cc1ccc(S(=O)(=O)NC(=O)Nc2cccc(C)n2)cc1 | 19.3
25 | CCOc1ccc(S(=O)(=O)Nc2cc(OC)ccc2OC)cc1 | 1.2
26 | CCOc1ccccc1CN1CCNC(=O)C1CC(=O)NCCC1=CCCCC1 (centres unmarked) | -11.3
27 | CCC1=C(OC(=O)N(CC)CC)N2C(=O)OC(=NCC(=O)OC)[C@]2(C)[C@H]2C1=CC[C@H]1C(=O)NC(=O)[C@H]12 | 6.15
28 | COc1ccccc1CNC(=O)C1(c2ccc(Cl)cc2)CC1 | 0.547
29 | Cc1ccc(C(=O)C2CCN(CC(=O)Nc3ccc(N(C)C)cc3)CC2)cc1 | -5.85
30 | COc1ccc(-c2c[n+]3c4n2CCCCC4=C(c2ccccc2)C3)cc1.[Br-] | -74.7
31 | CCOC(=O)N1CCN(Cc2nnc(-c3ccccc3C)o2)CC1.Cl | 12.5
32 | S=C(c1ccccc1)N1CCSCC1 | 11.9
33 | C=CCN(C/C(=N\O)c1sc(C(=O)OCC)nc1C)c1cccc(Br)c1 | 10.4
34 | C=CCSC1=NC(N)=C(C#N)C2(CCCCC2)C1C(N)=O (centres unmarked) | 6.67
35 | Clc1ccc(CSc2cc3c(nn2)-c2ccccc2CC3)cc1Cl | 12.4
36 | COc1ccc2nc(NC(=O)[C@@H]3CCCN3C(=O)c3cccs3)sc2c1 | -9.23
37 | COC(=O)c1cc(=O)n(C2CC2)c(=NC2CC2)s1 | -12.4
38 | CC1CCCCN1C(=O)C(Cc1ccccc1)N1C(=O)C2CCCCC2C1=O (centres unmarked) | 10.7
39 | O=C(Cc1c(F)cccc1Cl)N/N=C/c1cccnc1 | 14.6
40 | COc1ccc([N+](=O)[O-])cc1NC(=O)CCN1CCN(c2ccccc2)CC1 | 3.73
41 | Cc1ccccc1N(C(=O)c1snc(C(N)=O)c1N)C(C(=O)NCC1CCCO1)c1ccc(F)cc1 (centres unmarked) | 12.9
42 | Cc1ccc(NC(=O)CCn2nc([N+](=O)[O-])cc2C)nc1 | 8.24
43 | CCN1CCN(CC(=O)Nc2nc3ccccc3s2)CC1.O=CO | 0.501
44 | CCc1noc(C)c1C(=O)NNC(=O)c1ccccc1Cl | 19.4
45 | CC(=O)N1c2ccc(S(=O)(=O)NCCC(=O)Nc3cccc(Cl)c3)cc2CC1C (centres unmarked) | 6.6
46 | COCc1nnc(NC(=O)COc2ccc3c(c2)OCO3)s1 | 11.6

Row | SMILES | hERG current change (%, negative = inhibition) at 1uM [%]
47 | O=C(c1ccc(CS(=O)c2cccc(Cl)c2)o1)N1CCN(c2ccccn2)CC1 (centres unmarked) | -4.54
48 | CC(=O)Nc1ccc(S(=O)(=O)Nc2ccccc2N2CCOCC2)cc1Cl | 6.69
49 | CN1CCN(S(=O)(=O)c2ccc(NC(=S)NC(=O)c3ccccc3)cc2)CC1 | 7.58
50 | COc1ccc(F)cc1C(=O)C1CCCN(Cc2ccc3c(c2)OCCO3)C1 (centres unmarked) | 6.59
51 | CCOC(=O)c1c(C)n(Cc2ccccc2)c2ccc(OCC(O)CNC(C)(C)C)cc12 (centres unmarked) | -16.4
52 | Cn1c(CNc2ccccn2)c(C#N)c2ccccc21 | 2.32
53 | CCOc1ccccc1N(C)S(=O)(=O)c1ccc2c(c1)N(C(C)=O)CCO2 | 13.9
54 | CO/N=C/c1ccc(N2CCN(C(=O)c3cccc(C(F)(F)F)c3)CC2)c([N+](=O)[O-])c1 | -2.38
55 | O=C(CN1C(=O)/C(=C/c2ccccc2)SC1=S)NC1CCS(=O)(=O)C1 (centres unmarked) | 16.6
56 | O=C(N1CCC(O)(c2cccnc2)CC1)C12CC3CC(CC(C3)C1)C2 | 4.48
57 | O=C(c1oc(=O)c2ccccc2c1-c1ccccc1)N1CCC(O)CC1 | 1.07
58 | O=C(NCc1ccc(F)cc1)C1CCN(C(=O)Nc2ccc(F)cc2)CC1 | -7.77
59 | COc1ccc(N(CC(=O)Nc2ccc3c(c2)OCO3)S(=O)(=O)c2ccccc2)cc1OC | 8.29
60 | NC(=O)c1ccc(NC(=O)COc2coc(CN3CCc4ccccc4C3)cc2=O)cc1 | 11
61 | CCC(C)NC(=O)C1CCCN(C(=O)NC2CCCCC2)C1 (centres unmarked) | 16.1
62 | CC(C)Cn1c(=O)c2c(nc3n2CCCN3CCc2ccccc2)n(C)c1=O | -15.8
63 | CN1CCN(C(=O)C2CCCN(S(=O)(=O)c3ccccc3)C2)CC1 (centres unmarked) | 9.99
64 | Cc1ccc(-n2c(C)cc(C)c(C#N)c2=O)cc1Cl | 6.89
65 | Cl.OC(COc1ccc(Cl)c2ccccc12)CN1CCN(c2ccccn2)CC1 (centres unmarked) | 2.51
66 | CC(NC(=O)COC(=O)c1cc(=O)[nH]c2ccccc12)c1ccccc1 (centres unmarked) | 14.9
67 | CCCCc1ccc(S(=O)(=O)NC2CCS(=O)(=O)C2)cc1 (centres unmarked) | 7
68 | CCCNC(=O)CS(=O)(=O)Cc1nc(-c2ccccc2C)oc1C | 8.57
69 | CCC(COC)NC(=O)c1ccc(OC)c(OC2CCN(C(C)=O)CC2)c1 (centres unmarked) | 12.7

Row | SMILES | hERG current change (%, negative = inhibition) at 1uM [%]
70 | O=C(NCC1CCN(Cc2ccccc2F)CC1)Nc1cccc(Br)c1 | -6.45
71 | COc1cc(C(=O)OCCc2cc3ccccc3c(=O)o2)cc(OC)c1OC | 14.6
72 | Cc1ccc(N2C(=O)C(F)(F)C2c2ccccc2)cc1 (centres unmarked) | 21.1
73 | COc1ccccc1-c1noc(-c2cccnc2)n1 | 9.81
74 | N#Cc1ccccc1NC(=O)C1SC(=Nc2ccccc2)C(C(=O)Nc2ccc(Cl)cc2)=C1N (centres unmarked) | 6.56
75 | CCCCn1c(-c2csc(CCC)c2)n[nH]c1=S | 16.1
76 | Cc1cc(C(=O)Nc2ccc(S(=O)(=O)N3CCOCC3)cc2)ccc1[N+](=O)[O-] | 9.85
77 | COc1cc(C)c(CN2CC=C(c3ccc(F)cc3)CC2)cc1C | 5.21
78 | COc1ccc(CN2C(=O)c3ccccc3C2=O)cc1C(=O)O | 18
79 | O=c1[nH]c(-c2ccccc2)nc2sc(-c3ccccc3)cc12 | 6.98
80 | Cc1cccc(N2CCN(C(=O)c3cc4c(=O)n(C)c5ccccc5c4n3C)CC2C)c1 (centres unmarked) | 7.27
81 | COc1ccccc1N=Nc1c(O)[nH]c2ccc(Br)cc12 | 10.3
82 | COC(=O)CNC(=O)Cn1nc(C)c([N+](=O)[O-])c1C | 5.4
83 | CC(C)Cn1c(N)c(C(=O)COC(=O)C2CC(=O)N(Cc3ccccc3Cl)C2)c(=O)n(C)c1=O (centres unmarked) | -1.64
84 | Br.CCCN(CCC)C1CCc2cccc(O)c2C1 (centres unmarked) | 13.3
85 | O=C(CSc1ncn[nH]1)N(C1CCCCC1)C1CCCCC1 | -18.8
86 | COc1cccc(Oc2c(C)oc3c(CN4CCCCC4)c(O)ccc3c2=O)c1 | 8.5
87 | CCCOc1ccc(C(=O)CCC(=O)OCC(=O)N(C)c2c(N)n(Cc3ccccc3)c(=O)[nH]c2=O)cc1 | 8.97
88 | O=C(Nc1cc(Cl)ccc1O)C1CCCO1 (centres unmarked) | 3.36
89 | O=C(O)C(c1ccccc1)N1C(=O)/C(=C\c2ccc(O)c(O)c2)SC1=S (centres unmarked) | 14.6
